The campaign covered roughly 150,000 compounds. About 6,500 (4.3%) were called active. The inconclusive results got no clear call from the source; some entries with a clear call stand among them for comparison. Calls come from the whole dose curve; as a rule, active = well fitted inhibition curve with a large enough effect (not every such curve was filed as active); inconclusive = small, poorly fitted or top-dose-only effect, or another doubt; inactive = no such curve, though single readings can be large or run the other way. Where the call is inconclusive, the potency comes from a doubtful curve fit.
The compounds below were run against 15-hydroxyprostaglandin dehydrogenase [NAD(+)] (Homo sapiens) (UniProt P15428) (assay: qHTS Assay for Inhibitors of HPGD (15-Hydroxyprostaglandin Dehydrogenase)). Settings: purified HPGD, NADH fluorescence kinetic, PGE2 substrate; activity change, negative = inhibition: stronger effect = lower value.
Chain of UniProt P15428 (P15428 whole entry, looked up): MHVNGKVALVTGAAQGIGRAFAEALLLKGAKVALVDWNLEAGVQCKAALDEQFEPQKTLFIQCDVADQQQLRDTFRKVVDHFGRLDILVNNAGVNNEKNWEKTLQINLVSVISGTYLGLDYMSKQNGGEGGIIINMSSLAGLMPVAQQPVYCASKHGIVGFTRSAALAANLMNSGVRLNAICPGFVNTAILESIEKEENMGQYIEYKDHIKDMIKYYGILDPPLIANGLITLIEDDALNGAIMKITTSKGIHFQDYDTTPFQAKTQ
Outline: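 20 nM HPGD preincubated 15 min at room temperature with compound in 50 mM Tris-HCl pH 8, 0.01% Tween 20. Started with 1 mM NAD+ and 30 uM prostaglandin E2; NADH fluorescence (360/450 nm) read 5 times over 30-s intervals, last minus first.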
% is set by controls: 0 for no effect and ±100 for the full control effect; potency is the fitted concentration of half-maximal effect; tags give direction and shape of the fitted curve.

Activity change, negative = inhibition, inactive:
C=C(C(=O)OCC)C(=O)c1ccccc1 -7.81%
Cc1c(C)[n+](=O)c(-c2ccc(F)cc2)c(C)n1[O-] 2.05%
Cn1ccnc1SCC(=O)Nc1ccccc1 -8.58%
O=C(CN1CCN(S(=O)(=O)c2ccccc2)CC1)Nc1ccc([N+](=O)[O-])cc1 -12.7%
CCOC(=O)c1ccccc1NC(=O)CSc1nccn1C -10.3%
O=c1cc(N=Nc2ccc(O)cc2)[nH]c(=O)[nH]1 -8%
CC(C)c1nnc(SCc2ccc(CSc3nnc(C(C)C)n3N)cc2)n1N -8.21%
CCN(CC)c1ccc(C=Nc2ccccc2)c(O)c1 -28.1%
NCCCCCCCCCCNS(=O)(=O)c1cccc2c(Cl)cccc12 1.89%
O=C(NCc1ccccc1)C1CCN(S(=O)(=O)c2cc([N+](=O)[O-])ccc2Cl)CC1 -9.72%
Cc1ccc(S(=O)(=O)NCCN=C(CN2CCCC2)NS(=O)(=O)c2ccc(C)cc2)cc1 0.66%
CCNC(=O)CN(C1CCCCC1)S(=O)(=O)c1ccc(F)cc1 -13.2%
COc1ccccc1OCCNC(=O)c1cc(F)c(F)cc1Cl -18%
Cc1ccc(C(=O)NCC(=O)NCC(=O)OCC(=O)c2ccc(F)cc2)cc1 -16.4%
Cc1ccc(OCC(=O)N2N=C(C(F)(F)F)CC2(O)C(C)(C)C)cc1C (centres undefined) -5.44%
O=C(O)CSCc1cccc2ccccc12 -9.45%

Potency, active:
O=[N+]([O-])c1cccc(-c2nc(Oc3ccc(Cl)cc3)c3ccccc3n2)c1 25.1 µM
Cc1ccc(O)c(-c2cc(C(F)(F)C(F)F)[nH]n2)c1 15.8 µM
CCCc1[nH][nH]c(=O)c1C(c1ccc(Br)cc1)C(C#N)C#N (centres undefined) 20 µM
COc1ccc(Cc2nnc(N)s2)cc1OC 31.6 µM
COc1cc2c(cc1OC)-c1c(OC)c(OC)cc3ccnc(c13)C2=O 8.91 µM
COc1cccc(C2CC(=O)N3CN(c4cccc(Cl)c4C)CSC3=C2C#N)c1OC (centres undefined) 7.94 µM
O=C(/C=C/N1CCOCC1)c1ccc(-c2ccccc2)cc1 28.2 µM
Cc1ccccc1C1CC(=O)Oc2ccc(O)cc21 (centres undefined) 28.2 µM
COc1ccc(-n2nnnc2S(=O)(=O)CC(=O)N2CCCCC2)cc1 14.1 µM
Cc1ccc(C)c(Nc2ncccc2C(=O)NCc2cccs2)c1 25.1 µM
COC(=O)c1sc(NC(=O)c2cc(-c3ccccc3)nc3ccccc23)c(C#N)c1C 3.55 µM
CSc1ccccc1C(=O)NCCSc1ccccc1 15.8 µM
CCc1ccccc1N(CC)C(=O)CCc1nc(-c2ccc(C)cc2)no1 25.1 µM
COc1ccc2c(c1)c1nnc(SCC(=O)N3C(C)CCCC3C)nc1n2C (centres undefined) 11.2 µM
Cc1ccc2nc(Nc3ccccc3)c(/C=N/O)c(=O)n2c1 11.2 µM
O=[N+]([O-])c1ccc(Sc2n[nH]c(-c3ccccc3)n2)nc1 8.91 µM
CC(Oc1ccccc1)C(=O)Nc1ccccc1O (centres undefined) 7.08 µM
CCOc1ccc(N2C(=O)CC(N)C2=O)cc1 (centres undefined) 39.8 µM

Potency, inconclusive:
Cc1c(C(=O)Nc2nccs2)sc2nc(-c3cccs3)cc(C(F)(F)F)c12 25.1 µM [inhibitor, partial curve]
Nc1c(-c2ccccc2)nc(Cl)nc1-c1ccccc1 28.2 µM [inhibitor, partial curve]
C=CCn1c(CCCOc2ccc(Cl)cc2Cl)n[nH]c1=S 39.8 µM [inhibitor, partial curve, poor fit]
Cc1ccccc1S(=O)(=O)Nc1nc2ccccc2nc1N1CCOCC1 35.5 µM [inhibitor, partial curve]
CCc1ccc2oc(-c3cccc(N)c3)nc2c1 28.2 µM [inhibitor, partial curve]
C(=C\c1ccco1)/C1=NN(c2ccccc2)C(c2ccco2)C1 (centres undefined) 7.94 µM [inhibitor, full curve]
CCOC(=O)C1CCN(c2nc3cc(OC)ccc3cc2C#N)CC1 31.6 µM [inhibitor, partial curve]
Cc1ccccc1-c1nc(-c2cccnc2)no1 22.4 µM [inhibitor, single point]
COc1ccccc1/C=C/C(=O)OCC(=O)NCc1ccco1 28.2 µM [inhibitor, partial curve]
Cc1ccc(-c2cc(C(=O)N/N=C/c3c(C)nn(-c4ccccc4)c3C)[nH]n2)cc1 25.1 µM [inhibitor, partial curve]
Oc1ccc(F)cc1-c1cc(-c2ccc3c(c2)OCCO3)n[nH]1 20 µM [inhibitor, single point]
Cc1ccccc1OC/C(O)=C(\C#N)c1nc2ccccc2[nH]1 31.6 µM [inhibitor, single point]
COc1ccc(-n2nnc3c(SCC(=O)c4ccccc4)ncnc32)cc1 12.6 µM [inhibitor, partial curve]
O=c1[nH]cnc2sc(-c3ccccc3)cc12 25.1 µM [inhibitor, partial curve]
CC(C)OC(=O)CSc1ncnc2c1cnn2-c1ccccc1 25.1 µM [inhibitor, partial curve]
COc1ccc(C(c2c(C)[nH]n(-c3ccccc3)c2=O)c2c(C)[nH]n(-c3ccccc3)c2=O)cc1OC 39.8 µM [inhibitor, single point]
Cc1ccc(S(=O)(=O)C(C)C(=O)c2ccc3c(c2)OCCO3)cc1 (centres undefined) 31.6 µM [inhibitor, partial curve]
CC(C)(C)c1nc[nH]c(=O)c1Br 15.8 µM [inhibitor, partial curve]
CCOC(=O)c1sc2nc(N3CCOCC3)c3c(c2c1N)CCC3 25.1 µM [inhibitor, partial curve]
CC(=O)Nc1ccc(S(=O)(=O)Nc2nc3ccccc3nc2Nc2ccc(S(N)(=O)=O)cc2)cc1 25.1 µM [inhibitor, partial curve]
COC(=O)c1ccc(N2CCOCC2)c(NC(=O)Nc2cccc(OC)c2)c1 35.5 µM [inhibitor, partial curve, poor fit]
CCOC(=O)c1sc(Nc2nc3ccc(OC)cc3s2)cc1C 3.55 µM [inhibitor, full curve]
Cc1c(C(=O)NCCSCc2c(Cl)cccc2Cl)cccc1[N+](=O)[O-] 35.5 µM [inhibitor, single point]
CC(=O)Oc1ccc(C(=O)Nc2ccc3c(c2)C(=O)N(CCC(=O)O)C3=O)cc1 25.1 µM [inhibitor, partial curve]
Cc1ccc(C(=O)OC2=CC(=O)CC(C)(C)C2)cc1 31.6 µM [inhibitor, partial curve]
O=C(Nc1nc2ccc(Oc3ccccc3)cc2s1)c1cc([N+](=O)[O-])ccc1N1CCOCC1 20 µM [inhibitor, partial curve]
O=C(Nc1ccccc1)NC1(C(=O)NCc2cccs2)CCCCC1 31.6 µM [inhibitor, partial curve]
CSc1nc2ccccc2cc1/C=C(\C#N)c1cccc(Cl)c1 25.1 µM [inhibitor, partial curve]
CCN(CC(=O)Nc1cc(Cl)ccc1C)c1ncnc2sc(C)c(C)c12 31.6 µM [inhibitor, single point]
COc1cc(CC(NC(C)=O)C(=O)NC2CCN(c3nc(C)cc(C)c3C#N)CC2)cc(OC)c1 (centres undefined) 31.6 µM [inhibitor, partial curve]
COc1ccc2c(C)c(C(=O)NCC(C)O)oc2c1OC (centres undefined) 28.2 µM [inhibitor, partial curve]
C=CCn1c(COc2cccc3ccc(C)nc23)nnc1SCC(N)=O 35.5 µM [inhibitor, partial curve]
CCCCNc1nc(C)nc2c1nc(-c1ccccc1)n2CCN1CCCC1 31.6 µM [inhibitor, partial curve]
Cc1ccc(NC(=O)CN2C(=O)N/C(=C/c3ccc(C)o3)C2=O)cc1 35.5 µM [inhibitor, partial curve, poor fit]
CC(C)Cc1nc2oc3c(=O)[nH]cnc3c2c2c1CCCC2 25.1 µM [inhibitor, single point]
COc1ccc(/C=N/Nc2ncnc3scc(-c4ccccc4)c23)cc1OC 25.1 µM [inhibitor, partial curve]
Cc1cc(=O)oc2cc(OCC(O)CN3CCN(c4ccc(F)cc4)CC3)ccc12 (centres undefined) 17.8 µM [inhibitor, single point]
O=C(O)CCC(=O)N1N=C(c2cccs2)CC1c1cn(-c2ccccc2)nc1-c1ccccc1 (centres undefined) 44.7 µM [inhibitor, partial curve, poor fit]
CCOC(=O)Cn1nc(/C=C/c2ccc(C(C)C)cc2)ccc1=O 28.2 µM [inhibitor, partial curve]
COc1ccc(Cc2nc3c4c(ncn3n2)Oc2c(ccc3ccccc23)C4c2ccc(OC)c(OC)c2)cc1 (centres undefined) 12.6 µM [inhibitor, partial curve]
